Measurements taken from the antibiotic and cytotoxicity screens of Wong et al. (2023).
The list shows a part of the results.

Each compound was assayed on S. aureus RN4220 (assay: growth inhibition call (relative growth <= 0.2)). Conditions: 50 µM.
For `C[C@H]1CN([C@@H](C)CO)C(=O)c2cccc(NC(=O)Nc3cccc4ccccc34)c2O[C@H]1CN(C)Cc1ccc2c(c1)OCO2`, the growth inhibition call was “inactive”.
With `Cn1c(=O)c2c(nc(N3CCCCC3)n2CCN)n(C)c1=O` the growth inhibition call was “inactive”.
`CC(C)NC(=O)N(C)C[C@@H]1Oc2c(NS(=O)(=O)c3cccs3)cccc2C(=O)N([C@@H](C)CO)C[C@@H]1C` was tested, and the growth inhibition call was “inactive”.
`C[C@@H]1CN([C@H](C)CO)C(=O)c2cc(NS(=O)(=O)c3cccs3)ccc2O[C@@H](C)CCCCO[C@H]1CN(C)Cc1ccc2c(c1)OCO2` was tested, and the growth inhibition call was “inactive”.
For `C[C@@H]1CN([C@H](C)CO)C(=O)c2cc(NC(=O)Nc3ccc4c(c3)OCO4)ccc2O[C@@H]1CN(C)Cc1ccc(Cl)c(Cl)c1`, the growth inhibition call was “inactive”.
For `O=C(CN1CCOCC1)N/N=C/c1ccc([N+](=O)[O-])o1`, the growth inhibition call was “active”.
With `C[C@H](CO)N1C[C@H](C)[C@H](CN(C)S(=O)(=O)c2cccs2)Oc2ccc(NS(=O)(=O)c3ccccc3)cc2CC1=O` the growth inhibition call was “inactive”.
For `Cc1ccc(S(=O)(=O)N2C[C@@H](O)COC[C@H]3O[C@H](CC(=O)NCc4ccc(Cl)c(Cl)c4)CC[C@@H]32)cc1`, the growth inhibition call was “inactive”.
`C[C@H]1CN([C@@H](C)CO)S(=O)(=O)c2ccc(C3=CCCC3)cc2O[C@@H]1CN(C)S(=O)(=O)c1cn(C)cn1` was tested, and the growth inhibition call was “inactive”.
With `CNC[C@@H]1OCCCC[C@H](C)Oc2ccc(NC(=O)c3ccncc3)cc2C(=O)N([C@@H](C)CO)C[C@@H]1C` the growth inhibition call was “inactive”.
`C[C@H](CO)N1C[C@H](C)[C@@H](CN(C)Cc2ccccc2F)Oc2cc(C#CC3CC3)ccc2S1(=O)=O` was tested, and the growth inhibition call was “inactive”.
`C[C@H]1CN([C@@H](C)CO)C(=O)c2cccc(NC(=O)c3ccc(-c4nccs4)cc3)c2O[C@H]1CN(C)S(C)(=O)=O` was tested, and the growth inhibition call was “inactive”.
With `C[C@@H]1CN([C@H](C)CO)C(=O)Cc2cc(NC(=O)NC3CCCCC3)ccc2O[C@@H]1CN(C)Cc1ccc(C(F)(F)F)cc1` the growth inhibition call was “inactive”.
In the case of `C[C@@H]1CN([C@@H](C)CO)C(=O)c2cccc(NS(=O)(=O)c3ccc(F)cc3)c2O[C@@H]1CN(C)CC1CC1`, the growth inhibition call was “inactive”.
For `COCCOC(=O)N1C(=O)[C@@]2(c3ccccc31)[C@H](C(=O)N1CCCCCCC1)[C@H]1C(=O)O[C@H](c3ccccc3)[C@H](c3ccccc3)N1[C@@H]2c1ccccc1OCCO`, the growth inhibition call was “inactive”.
With `Cc1ccc(S(=O)(=O)N(C)C[C@@H]2Oc3ccc(NC(=O)Nc4ccc(C(F)(F)F)cc4)cc3C(=O)N([C@H](C)CO)C[C@H]2C)cc1` the growth inhibition call was “inactive”.
For `C[C@@H]1CN([C@@H](C)CO)S(=O)(=O)c2ccc(-c3cccc(C#N)c3)cc2O[C@H]1CN(C)C(=O)c1ccncc1`, the growth inhibition call was “inactive”.
With `COc1ccc([C@@H](N)c2ccccc2)cc1` the growth inhibition call was “inactive”.
In the case of `COc1ccc(S(=O)(=O)N(C)C[C@H]2OCCCC[C@@H](C)Oc3ccc(NC(=O)c4ccccc4)cc3C(=O)N([C@@H](C)CO)C[C@@H]2C)cc1`, the growth inhibition call was “inactive”.
For `COc1ccc([Si](C)(C)[C@@H]2[C@@H](CC(=O)N3CCC[C@H]3CO)O[C@]3(C(=O)N(Cc4cccc(N5C(=O)c6cccc7cccc5c67)c4)c4ccccc43)[C@H]2C)cc1`, the growth inhibition call was “inactive”.
In the case of `CN1CCN(C2=Nc3cc(Cl)ccc3Nc3ccccc32)CC1`, the growth inhibition call was “inactive”.
With `O=C(C[C@H]1C=C[C@@H](NS(=O)(=O)c2ccccc2)[C@H](CO)O1)NCc1ccncn1` the growth inhibition call was “inactive”.
In the case of `CO[C@@H]1CN(C)C(=O)c2cc(NS(=O)(=O)c3cn(C)cn3)ccc2OC[C@H](C)N(CC2CC2)C[C@@H]1C`, the growth inhibition call was “inactive”.
With `Cc1noc(C)c1S(=O)(=O)N(C)C[C@@H]1Oc2ccc(NC(=O)Cc3cn(C)c4ccccc34)cc2CC(=O)N([C@@H](C)CO)C[C@@H]1C` the growth inhibition call was “inactive”.
With `C=CC[C@@H](CC(=O)N[C@H](CO)Cc1ccccc1)C(=O)N[C@H](COC(=O)[C@@H](CC=C)Cc1ccc(F)cc1)Cc1c[nH]c2ccccc12` the growth inhibition call was “inactive”.
`CCN(CC)CCNc1ccc(COc2ccccc2/C=C(C)/C=C/C(=O)NO)c2sc3ccccc3c(=O)c12` was tested, and the growth inhibition call was “inactive”.
With `Cc1noc(C)c1NC(=O)Nc1ccc2c(c1)C(=O)N([C@@H](C)CO)C[C@H](C)[C@@H](CN(C)C(=O)Nc1ccccc1)OCCCC[C@H](C)O2` the growth inhibition call was “inactive”.
In the case of `COc1ccc(NC(=O)N(C)C[C@H]2OCc3cnnn3CCCC(=O)N([C@H](C)CO)C[C@H]2C)c(OC)c1`, the growth inhibition call was “inactive”.
For `C[C@@H]1CN([C@@H](C)CO)C(=O)c2cc(NC(=O)Nc3ccc(C(F)(F)F)cc3)ccc2O[C@@H]1CN(C)Cc1ccncc1`, the growth inhibition call was “inactive”.
For `COc1ccc(NC(=O)N(C)C[C@H]2OCCCC[C@H](C)Oc3ccc(NC(=O)Cc4ccccc4)cc3C(=O)N([C@@H](C)CO)C[C@H]2C)cc1`, the growth inhibition call was “inactive”.
In the case of `CN(C)CC#Cc1ccc([C@@H]2[C@@H](CO)N3C(=O)CN(C(=O)c4cccnc4)C[C@@H]23)cc1`, the growth inhibition call was “inactive”.
With `COc1ccc(NC(=O)N(C)C[C@H]2Oc3ncc(C#CC(C)C)cc3C(=O)N([C@H](C)CO)C[C@H]2C)cc1` the growth inhibition call was “inactive”.
With `CCc1nc2ccc(C(=O)Nc3cc(-c4ccccc4)ccc3OC)cn2c1N(CCN(C)C)CC1CC1` the growth inhibition call was “inactive”.
`COc1ccc(S(=O)(=O)N[C@@H]2CC[C@@H](CC(=O)N3CCC(Cc4ccccc4)CC3)O[C@@H]2CO)cc1` was tested, and the growth inhibition call was “inactive”.
In the case of `CC(C)NC(=O)N(C)C[C@@H]1OCCCC[C@@H](C)Oc2ccc(NC(=O)Nc3ccccc3)cc2C(=O)N([C@@H](C)CO)C[C@H]1C`, the growth inhibition call was “inactive”.
In the case of `Cn1cnc(S(=O)(=O)N2CC[C@@H](O)[C@@H]2Cc2cnn(C)c2)c1`, the growth inhibition call was “inactive”.
In the case of `O=C(O)CC(CC(=O)O)C(=O)O`, the growth inhibition call was “inactive”.
`C[C@@H]1CCCCO[C@H](CN(C)Cc2ccc(C(F)(F)F)cc2)[C@@H](C)CN([C@@H](C)CO)C(=O)c2cc(NC(=O)c3ccncc3)ccc2O1` was tested, and the growth inhibition call was “inactive”.
`C[C@@H]1CCCCO[C@H](CN(C)Cc2ccc(C(=O)O)cc2)[C@@H](C)CN([C@@H](C)CO)C(=O)c2cc(NC(=O)Nc3cccc4ccccc34)ccc2O1` was tested, and the growth inhibition call was “inactive”.
For `COc1ccc2c3c([nH]c2c1)[C@H](CO)N(C[C@]13CCN(CC1)C(=O)c1ccccc1F)C(=O)Nc1ccc(cc1)F`, the growth inhibition call was “inactive”.
